# The supplement of paper PMC3334620
# Over roughly 33,000 sequences, “E-score (-0.5 to 0.5)” has its median near -0.021; the highest 2% begin near 0.32. Some of the results follow.
# Molecular target: T1, Zap1 (UniProt P47043)
# T1 sequence: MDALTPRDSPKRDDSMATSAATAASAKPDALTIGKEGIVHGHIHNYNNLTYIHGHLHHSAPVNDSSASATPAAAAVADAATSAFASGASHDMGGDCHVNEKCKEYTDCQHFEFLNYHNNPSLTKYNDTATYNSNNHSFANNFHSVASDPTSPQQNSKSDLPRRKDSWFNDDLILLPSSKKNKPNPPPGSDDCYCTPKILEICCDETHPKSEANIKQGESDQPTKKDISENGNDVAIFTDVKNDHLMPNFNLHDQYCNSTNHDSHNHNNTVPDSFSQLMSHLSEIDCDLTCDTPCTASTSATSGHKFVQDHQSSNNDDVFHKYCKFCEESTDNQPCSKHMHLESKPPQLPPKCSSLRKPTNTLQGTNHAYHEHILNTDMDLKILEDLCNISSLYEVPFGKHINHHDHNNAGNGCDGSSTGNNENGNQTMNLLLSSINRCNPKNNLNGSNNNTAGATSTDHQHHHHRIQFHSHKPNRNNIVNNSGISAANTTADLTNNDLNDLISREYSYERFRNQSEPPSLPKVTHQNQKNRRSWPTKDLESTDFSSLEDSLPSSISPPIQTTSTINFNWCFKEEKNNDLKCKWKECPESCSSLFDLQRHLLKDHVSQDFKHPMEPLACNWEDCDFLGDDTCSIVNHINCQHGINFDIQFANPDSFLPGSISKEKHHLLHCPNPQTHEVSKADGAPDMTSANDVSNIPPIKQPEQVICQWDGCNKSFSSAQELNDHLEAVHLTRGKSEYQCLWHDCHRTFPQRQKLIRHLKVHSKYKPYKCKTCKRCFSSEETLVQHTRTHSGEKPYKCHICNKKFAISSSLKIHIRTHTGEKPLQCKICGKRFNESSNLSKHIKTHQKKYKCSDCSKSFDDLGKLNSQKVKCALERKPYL
# Experiment: PBM E-score (8-mer binding enrichment) (E-score (-0.5 to 0.5)); higher = stronger / more preferred TF binding; most listed sequences are background and not binding sites
# Conditions: protein concentration: 200 nM; construct: GST-full length
# In short: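 E-scores (a modified Wilcoxon-Mann-Whitney statistic) were assigned by the Universal PBM Analysis Suite to every ungapped eight-base word pooled with its reverse complement. The input came from universal all-10-mer Agilent arrays made double-stranded by primer extension and probed with GST-tagged yeast transcription factors at about 100-200 nM. Fluorescent anti-GST detected bound protein, and masliner normalised the scans.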
row,Sequence,PBM E-score
1,AGTGTACA,-0.0381
2,TTTTAAAA,0.227
3,CACGTACG,-0.19
4,AGACGGTC,-0.0807
5,TGAGAGAA,-0.0708
6,CAACTCGC,0.0406
7,CCCTCTAA,0.0729
8,GTCACAGA,0.105
9,ATAGCGAA,0.0489
10,CGTCCGTA,0.0251
11,ACCTAGAT,0.0925
12,CAACAATC,0.107
13,CTTGTCCA,-0.141
14,TAGGCCGA,-0.131
15,CTTATTTA,0.0152
16,AAAAGGTC,0.367
17,CGAGTGGA,0.0384
18,CAACATGC,-0.185
19,CTGTTTTA,0.151
20,CCAATACC,0.162
21,GCACCGGA,-0.061
22,ATCCAAAC,0.14
23,CGGCGCGC,-0.035
24,AACCAGCC,0.0429
25,AGATTCAC,-0.207

row,Sequence,PBM E-score
1,CATCAGCG,-0.182
2,CAAAAAAA,0.312
3,TACGCTAA,0.0172
4,ACGTGTTC,-0.173
5,TATATGGA,-0.0219
6,AGTTCCAC,0.0816
7,AACCCCTC,0.353
8,ACCTTCCT,-0.0167
9,CCGTAGAC,-0.13
10,CAATAACG,0.138
11,CCAAGTGG,-0.0228
12,TATATTCA,0.0295
13,GTATTGCA,-0.136
14,CCCGATAA,-0.004
15,TCTGTGAA,0.0856
16,CAGTTATA,0.0691
17,TAGTACCA,0.163
18,CGCTCGGA,0.0163
19,CTAGTCGC,-0.254
20,CTAGACAA,-0.00796
21,CAGGAACA,-0.013
22,ACAGCAAG,0.0466
23,ACGGCCCC,-0.0345
24,AGGGGGGC,-0.42
25,GACGTGAA,0.0444

row,Sequence,PBM E-score
1,GAAGCGGC,-0.196
2,AACTAGCC,-0.0594
3,TCCGTCAA,0.0264
4,ATAACTTG,0.107
5,ATTTACAA,0.129
6,AATAACCG,0.421
7,AATTTCAG,-0.123
8,CCTTGCCC,-0.121
9,AGCCAAGG,-0.00722
10,AAAACTTA,0.104
11,TCACAGGA,-0.0922
12,CCATCTTC,-0.0575
13,TACATATA,0.225
14,AGACTAGA,-0.125
15,TGTTGTAA,0.159
16,ACACCAAC,0.0702
17,GGTCCGAA,0.123
18,ACGCTACA,-0.022
19,GCGGAACC,0.274
20,CCCGAGTC,0.0118
21,CCGCGCCG,0.0339
22,ATGATGCG,-0.0528
23,CAACGTGA,-0.0407
24,TACGTTCA,0.0801
25,AATCCTTC,-0.218

row,Sequence,PBM E-score
1,CACACCAC,0.195
2,GTTTGTTA,0.131
3,ATGCGCGG,-0.0462
4,AAACTGCG,-0.0606
5,ATTGATCG,0.0326
6,ATGGCAGA,-0.0886
7,CTAGTACC,0.0962
8,ACGAGAAG,-0.0992
9,GTAGGATA,-0.116
10,AATCCACG,0.006
11,ATGAAGTC,-0.169
12,TAAGCATA,0.0573
13,AATATAAC,0.218
14,AAATGGTT,0.298
15,CGCCCGAC,-0.0796
16,CAGTCCAA,-0.103
17,ACACGAGA,0.0148
18,ATGGGCCA,0.0896
19,CATACTCG,-0.0343
20,AGACAGCA,-0.0987
21,ACCGAAAG,0.117
22,AAGTGTTA,0.096
23,TACTACAA,0.126
24,AGCGGACA,0.0351
25,ACATAAAC,0.211

row,Sequence,PBM E-score
1,TCGCCAGA,-0.112
2,ATTAACGC,-0.124
3,AATAAACC,0.154
4,CTACTCGA,-0.105
5,AATTAGCA,-0.00754
6,TCACCGAA,0.181
7,ACGTGATA,-0.139
8,AAAAAAGA,0.207
9,AGTCGACG,0.0342
10,GCCGTGAA,0.0645
11,TGGCGCAA,-0.0873
12,ATTAACTC,0.0519
13,AGAGCACC,-0.0101
14,GGTGTCTA,0.0852
15,AGATTAAG,0.0817
16,GGGTGAAA,0.208
17,AGGGTAGC,0.313
18,ATATCTCG,0.00536
19,CATGCGTC,-0.256
20,AGCCGAGC,-0.27
21,GAGCGAAC,-0.268
22,GAGCGTCA,-0.17
23,CGGTATGA,0.0503
24,TCAATACA,0.196
25,AGCGAGTG,-0.0427

row,Sequence,PBM E-score
1,AAGAGTCA,0.0989
2,AATGAAAG,0.0755
3,ATAACACC,0.137
4,GTGTGCTA,0.0307
5,CGTACGGA,0.00356
6,ACTATACC,0.228
7,AAGTTACT,-0.0263
8,GTTGACCA,0.177
9,CCTAGAGG,0.366
10,ATAAGCAG,-0.0311
11,ACCCGGGC,0.0212
12,GCACGTCC,-0.136
13,ATCCTCGC,-0.0781
14,CGCGCGCA,0.18
15,AACGGGAC,-0.179
16,TGTTCTAA,0.18
17,CACCCCGA,0.0683
18,ATTTAAAG,0.121
19,AATAAGGA,-0.00733
20,AGTTGGCA,-0.0991
21,ACTTCACT,-0.144
22,GCAATGAA,-0.0227
23,GTGATAGA,0.0338
24,GCGGAAGC,-0.111
25,CTGGGACC,-0.191

row,Sequence,PBM E-score
1,CCGCGATC,0.103
2,CATTCCAC,-0.0174
3,AACCATAG,0.16
4,ACTGTGAC,0.197
5,GGCAAGCA,-0.254
6,CTGCTCAA,-0.0635
7,AACTCCAG,-0.137
8,GGCTTAGA,-0.11
9,ATCCAAGG,-0.0939
10,GGATGACA,-0.154
11,ACAGTCGG,0.00691
12,CTTAGTTA,0.0283
13,TAACACGA,0.0984
14,AGTCCTAA,-0.012
15,TGGACTAA,-0.111
16,AGCAAAAA,0.19
17,ACACACGT,-0.0511
18,CAATGTCA,0.0332
19,ACTATCGG,-0.122
20,CTTCCGTA,0.033
21,ACGTAATC,0.116
22,CCGAGGCG,0.0801
